# Experimental data from PubChem BioAssay AID1347120 (National Center for Advancing Translational Sciences (NCATS), 2019).
# The campaign covered roughly 390,000 compounds. About 930 (0.24%) were called active. Inconclusive means that the source gave no clear call. Such entries were picked first, then a sample of the others. Calls follow the shape of the dose curve; as a rule, active = well fitted activation curve with a large enough effect; inconclusive = small, poorly fitted or top-dose-only effect; inactive = no such curve, though single readings can be large or run the other way. Where the call is inconclusive, the potency comes from a doubtful curve fit.
# Test: qHTS for Suppressors of FUS Proteinopathy: Primary screen using FUS-linked yeast assay; also: nearly all actives have a fitted effect of over 55% in size;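 as to growth rescue (activation): plate controls were DMSO vehicle for no effect and reference control for full effect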
# Conditions: S. cerevisiae FUS-expressing, OD600, 24 h; Potency: growth rescue; growth rescue (activation): at 76.6 µM (top of the series)
# Method in brief: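 Compound concentration series was pinned onto galactose-induced FUS-expressing yeast seeded at OD 0.005. Plates sat 24hr at 30C; absorbance at 600 nm gave growth. DMSO served as background control.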
# Potency is read from the fitted curve at half-maximal effect; tags tell the direction and shape of the fitted curve.
SMILES,Potency,growth rescue (activation)
Oc1ccc(-c2[nH]ncc2-c2ccc(Cl)cc2)c(O)c1,"inconclusive: 5.01 µM [activator, full curve]",
C#CCOCCOCCOCCNc1nc(N2CCN(C(=O)CCCCCCCCCCNC(=O)[C@H]([C@@H](C)CC)n3cc(CCCCN=C(N)N)nn3)CC2)nc(N2CCN(C(=O)CCCCCCCCCCNC(=O)[C@@H]([C@H](C)O)n3cc(C)nn3)CC2)n1,"inconclusive: 0.891 µM [activator, full curve, poor fit]",
O=C(CSc1nccc(=O)[nH]1)c1cc2ccccc2o1,,inactive: -10.8%
COc1ccc(CCNC(=O)Cn2nnc(-c3ccc(Cl)cc3)n2)cc1OC,,inactive: -24%
COc1ccc(C#Cc2cnc3c(c2)C(=O)N([C@H](C)CO)C[C@H](C)[C@@H](CN(C)C(=O)Nc2cccc(OC)c2)O3)cc1,"inconclusive: 50.1 µM [activator, single point]",
Cc1nc(CS(=O)(=O)c2ccc(Cl)cc2)cc(Sc2ccccc2Cl)n1,,inactive: 22%
O=C(NC(=S)Nc1ccccc1Br)C1CCCC1,,inactive: -4.72%
CCOC(=O)CNC(=S)N(Cc1ccccc1)Cc1cccnc1,,inactive: 0.456%
O=C(CSC1=NCCS1)Nc1ccc(S(=O)(=O)NC2CCCCC2)cc1,active: 39.8 µM,
CCC(=O)Nc1nc(C)c(-c2csc(Nc3cccc(O)c3)n2)s1,"inconclusive: 50.1 µM [activator, single point]",
O=C(CCn1ccc2ccccc21)NC1CCCc2ccccc21 (configuration not stated),,inactive: -17.1%
Cc1ccc(C)n1-c1ccc(-c2nnc3n2CCCCC3)s1,"inconclusive: 35.5 µM [activator, single point]",
O=C(CN1C(=O)S/C(=C\c2cccs2)C1=O)Nc1ccc(O)cc1C(=O)O,,inconclusive: -103% [activator]
Fc1ccc(Nc2nc(SCc3ccccc3Cl)nc3ccccc23)cc1,,inactive: -4.05%
Cc1cccc(N2CCN(C(c3ccccc3)c3nnc(-c4ccccc4F)o3)CC2)c1C (configuration not stated),"inconclusive: 25.1 µM [activator, partial curve, poor fit]",
Cc1cc(Cl)ccc1OCC(=O)NNC(=O)C1CCN(c2ncnc3sc(C)c(C)c23)CC1,"inconclusive: 17.8 µM [activator, partial curve, poor fit]",
O=[n+]1c2c(n([O-])c3cc(F)c(F)cc31)CCCC2,"inconclusive: 10 µM [activator, full curve]",
O=C(c1ccc(Cl)c(Cl)c1)N1CCC(=O)N(C(COCc2cccc(Cl)c2)Cc2ccccc2)CC1 (configuration not stated),"inconclusive: 8.91 µM [activator, full curve]",
COc1ccc(CSc2nc3ccncc3n2CC(=O)Nc2cc(C)cc(C)c2)cc1,"inconclusive: 31.6 µM [activator, partial curve, poor fit]",
C=CCNC(=O)C1CCN(c2cncnc2)CC1,,inactive: -1.6%
COc1ccc(CN2C3=NC(c4ccccc4)CC(=O)N3/C(=C\c3ccccc3)C2c2ccccc2)c(OC)c1 (configuration not stated),"inconclusive: 17.8 µM [activator, partial curve, poor fit]",

SMILES,Potency,growth rescue (activation)
Cn1c2ccccc2c2cc(/C=N/NC(=O)c3ccccc3F)ccc21,"inconclusive: 35.5 µM [activator, single point]",
COCCCC1CCN(C(=O)c2cc(COc3cc(C)ccc3C)on2)CC1,"inconclusive: 25.1 µM [activator, single point]",
COc1cccc(/C=C2\SC(=S)N(CCCC(=O)N(CCO)c3ccccc3)C2=O)c1,"inconclusive: 25.1 µM [activator, single point]",
Cc1ccc(CSC2=Nc3ccccc3C3=NC(CCC(=O)NC4CCCCC4)C(=O)N23)cc1 (configuration not stated),,inactive: 25.8%
NNC(=O)c1ccc(COc2ccc3c(c2)CCC3)cc1,"inconclusive: 31.6 µM [activator, partial curve]",
CCC1=Nc2cc(C(=O)NCCc3ccc(OC)c(OC)c3)ccc2Sc2ccccc21,"inconclusive: 12.6 µM [activator, single point]",
COCCN(C(=O)CCC(=O)Nc1ccccn1)C(C(=O)NCCC(C)C)c1ccc(OC)cc1 (configuration not stated),"inconclusive: 39.8 µM [activator, partial curve, poor fit]",
c1ccc(CN2CCN(c3nc(N4CCOCC4)c4ccccc4n3)CC2)cc1,,inactive: -10.9%
Cn1c(NCC(O)c2ccccc2)nc2c1c(=O)n(Cc1ccc(Cl)cc1)c(=O)n2C (configuration not stated),,inactive: 16.7%
CCc1ccc(NCc2cc3ccc(OC)cc3n(CC(=O)Nc3ccccc3C)c2=O)cc1,,inactive: -5.64%
COc1ccc(CCNC(=O)c2ccc3c(c2)N(Cc2ccc(F)cc2)CCS3)c(OC)c1,,inactive: 5.75%
CCOc1ccc(NC(=O)CN(C)C(=O)c2cc3c(s2)CCC3)cc1OCC,"inconclusive: 17.8 µM [activator, partial curve]",
CN(C)C(=O)CCc1ccc2c3c([nH]c2c1)[C@]1(CCC2CCCC2)[C@@H](C(=O)N2CCOCC2)C[C@H](CC(=O)NCc2cccc(C(F)(F)F)c2)C(=O)N1CC3,"inconclusive: 25.1 µM [activator, single point]",
C=CC[C@H](CC(=O)N(CCO)Cc1ccccc1)C(=O)N[C@H](COC(=O)[C@@H](CC=C)Cc1ccc(F)cc1)Cc1ccccc1,"inconclusive: 15.8 µM [activator, partial curve]",
CCCCCNC(=O)C(c1ccncc1)n1c(=O)c(-c2cc3ccccc3[nH]2)nc2ccccc21 (configuration not stated),,inactive: 21.8%
O=C(CSc1nc2ccccc2nc1N1CCOCC1)N1CCN(c2ccccc2)CC1,"inconclusive: 35.5 µM [activator, single point]",
CCCSCCCNC(=O)C1CCN(C(=O)c2cnn(-c3ccccc3)c2-n2cccc2)CC1,"inconclusive: 28.2 µM [activator, partial curve]",
CC1CN(c2c3c(nc4ncnn24)CCCC3)CC(C)O1 (configuration not stated),"inconclusive: 35.5 µM [activator, single point]",
CCOc1ccc(C2=NC(c3ccncc3)=Nc3ccc(C)cc3N2)cc1OCC,,inactive: 43.9%
O=C(CSc1cc(Cl)ccc1Cl)Nc1ccc(N2CCOCC2)cc1,,inactive: 14.1%
Cc1ccc(CNC(=O)C(Cc2ccccc2)NS(=O)(=O)c2cccs2)cc1 (configuration not stated),,inactive: -2.2%
